The values below come from PMC6212790.

The list shows a part of the results. At the low end of the ranking the order means little.

This experiment addresses T1, GST-Rok-C97-191 (UniProt O34857).
T1 sequence: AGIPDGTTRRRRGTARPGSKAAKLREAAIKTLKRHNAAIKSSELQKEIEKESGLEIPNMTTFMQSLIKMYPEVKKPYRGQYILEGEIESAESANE
Nature of the experiment: protein binding microarray.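 Note: rank score from −0.5 (least bound) to 0.5 (best bound).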 The note with it: Rok is a gene silencer of Bacillus subtilis; high values mean tight binding; most listed sequences are background and not binding sites; double strand, one strand shown.
Turning to ACTCACCC, the binding signal is -0.179 E-score.

Consider AAAGTGAC, for which the binding signal is -0.0335 E-score.

On to ATCCGGGA, for which the binding signal was -0.189 E-score.

With GACTTAAC, the binding signal was determined as 0.0428 E-score.

As for CTGGGGGC, the binding signal was -0.392 E-score.

Take AAGGTGCA: the binding signal is -0.103 E-score.

As to ATCGAAGG, the binding signal was -0.186 E-score.

Consider ACATTTGA, for which the binding signal is -0.0376 E-score.

The sequence TCTGTGAA showed a binding signal of 0.0175 E-score.

AAGTGAAG: the binding signal is -0.0365 E-score.

As to GTAGATCA, the binding signal worked out at 0.24 E-score.

On to AACTACTA, for which the binding signal turned out to be 0.465 E-score.

Take GGCTACTA: the binding signal amounted to 0.0153 E-score.

AGTACGTA registered a binding signal of 0.227 E-score.

AAGTCCCA: the binding signal is -0.172 E-score.

For the sequence ACTAGTTA, the binding signal was 0.448 E-score.

For CTGCTAAA, the binding signal is -0.0612 E-score.

Consider AAAGCCCC, for which the binding signal was -0.326 E-score.

AGAAACAT: the binding signal came out at 0.154 E-score.

In the case of ACAGTTAG, the binding signal was determined as 0.116 E-score.

In the case of GTAAGGAA, the binding signal was -0.0549 E-score.

Consider GAATGGCA, for which the binding signal is -0.0487 E-score.

For the sequence GAACCGAA, the binding signal came to 0.00912 E-score.

Sequence AATGGCAT registered a binding signal of 0.103 E-score.

With GAAACCAC, the binding signal was 0.0189 E-score.

CTAAGGGC: the binding signal is -0.183 E-score.

As for CGTTACCC, the binding signal was -0.231 E-score.

AGCAGATA registered a binding signal of 0.0118 E-score.

As for GAGTGATC, the binding signal is -0.175 E-score.

For the sequence TAAGCCCA, the binding signal is -0.182 E-score.

With CATGGTCC, the binding signal is -0.111 E-score.

Turning to GTTCGCGA, the binding signal is -0.163 E-score.

Turning to ACCTCTGC, the binding signal was -0.089 E-score.

On to AGCAAACA, for which the binding signal is -0.103 E-score.

As for GCCACCAA, the binding signal was -0.143 E-score.

With ACCGTTCG, the binding signal was -0.153 E-score.

For AAAAGCAA, the binding signal was 0.148 E-score.

Take GCTCGACC: the binding signal is -0.211 E-score.

The sequence AACTATTA yielded a binding signal of 0.444 E-score.

For the sequence ACAGTAGG, the binding signal was determined as 0.201 E-score.

As to CTGTGCTC, the binding signal was -0.26 E-score.

The sequence TCAACTGA yielded a binding signal of 0.0288 E-score.

As to CTAAGTCA, the binding signal is -0.0334 E-score.

As for AGGTTCCC, the binding signal is -0.303 E-score.

Consider CTACGCGA, for which the binding signal is -0.0284 E-score.

With AGACCAAT, the binding signal was -0.161 E-score.

In the case of ACATCTAA, the binding signal was found to be 0.0495 E-score.

In the case of GGGCGAAC, the binding signal is -0.281 E-score.

Regarding ATTTTCGC, the binding signal was -0.00708 E-score.

In the case of GCATAAGC, the binding signal was -0.0858 E-score.

On to CGCGCAGA, for which the binding signal was -0.0439 E-score.

In the case of GACTGAAC, the binding signal came out at 0.0198 E-score.

In turn, AAAGGTAC gave a binding signal of 0.217 E-score.

Regarding CCGGACCA, the binding signal was -0.196 E-score.

The sequence TCCTACCA yielded a binding signal of 0.273 E-score.

TACAGTGA: the binding signal stood at 0.0342 E-score.

GGAATTCA: the binding signal was -0.0845 E-score.

The sequence AGATCAGG returned a binding signal of 0.0368 E-score.

Regarding CCCTCAGG, the binding signal was -0.376 E-score.

As for ATCTCAAG, the binding signal was -0.0379 E-score.

Sequence TCAGTACA showed a binding signal of 0.0426 E-score.

As for GTTCTTGA, the binding signal was -0.071 E-score.

On to CCCGGCAG, for which the binding signal is -0.212 E-score.

ACCAGCCT yielded a binding signal of 0.043 E-score.

CCCAAATC: the binding signal was -0.133 E-score.

Take AGGCTCAG: the binding signal was -0.277 E-score.

Take CAAGGCAG: the binding signal is -0.103 E-score.

On to ACTACCGA, for which the binding signal is 0.308 E-score.

GTTATACA yielded a binding signal of 0.253 E-score.

With CAAATTGA, the binding signal is -0.0429 E-score.

Consider ATTTTACC, for which the binding signal was determined as 0.322 E-score.

In the case of CGCCGTAG, the binding signal came to 0.0501 E-score.

As to GCTCGTTA, the binding signal is -0.0735 E-score.

CATCCCGC: the binding signal was -0.0584 E-score.

The sequence AATCACGT gave a binding signal of 0.0359 E-score.

In the case of AGTTGGAC, the binding signal was -0.194 E-score.

As to CCAGTAAG, the binding signal was -0.27 E-score.

As for GGTTGCCA, the binding signal is -0.212 E-score.

As for GCCGGGTA, the binding signal was -0.0858 E-score.

Regarding CACCTTTC, the binding signal was -0.147 E-score.

In the case of ACAGACAA, the binding signal is -0.0117 E-score.

For GGAAATCA, the binding signal is 0.0546 E-score.

Turning to ATATCCCC, the binding signal was -0.0642 E-score.

GGTAGCTA had a binding signal of 0.357 E-score.

Regarding ATTGGGAC, the binding signal was -0.0199 E-score.

On to CATTGCTC, for which the binding signal was -0.106 E-score.

Turning to GAGTCAAA, the binding signal was -0.0333 E-score.

As for CGGCAGCA, the binding signal is -0.247 E-score.

CACGGCAG: the binding signal is -0.237 E-score.

As to ACGTCTTA, the binding signal was -0.144 E-score.

Regarding CCTAGTCG, the binding signal is -0.0874 E-score.

In the case of ATACGTCA, the binding signal worked out at 0.149 E-score.

With CGCAGTAA, the binding signal was found to be 0.0695 E-score.

In turn, ACTTGCAC came in with a binding signal of 0.16 E-score.

In the case of CGTTAGCC, the binding signal is -0.133 E-score.

In the case of CGTAAGTA, the binding signal was determined as 0.16 E-score.

Consider CCAACCGC, for which the binding signal is -0.309 E-score.

For CTGATCTA, the binding signal was 0.106 E-score.

In the case of ATGGTCGC, the binding signal is -0.189 E-score.

On to AATGCATT, for which the binding signal stood at 0.0786 E-score.

On to CGATGCTC, for which the binding signal is -0.168 E-score.

For ATGTTATG, the binding signal came to 0.14 E-score.

The sequence ATGGGAAT came in with a binding signal of 0.192 E-score.

As for CCACAGCA, the binding signal was -0.129 E-score.

Regarding CCCTTCAC, the binding signal was -0.324 E-score.

In the case of GCCCTAAC, the binding signal is -0.16 E-score.

For the sequence ACTGCTCG, the binding signal is -0.137 E-score.

With ACGATCCG, the binding signal stood at 0.259 E-score.

As to CTCTCCGC, the binding signal is -0.338 E-score.

Take CGAAAACA: the binding signal was 0.348 E-score.

As to AAACGGCC, the binding signal is -0.269 E-score.

Consider GCATCGTA, for which the binding signal was -0.0338 E-score.

Take CATCCACC: the binding signal is -0.079 E-score.

For AACTGCGG, the binding signal was -0.161 E-score.

In turn, CGTAGATA registered a binding signal of 0.21 E-score.

CGGCGGCA: the binding signal was -0.23 E-score.

In the case of AAAGTTGA, the binding signal is -0.0562 E-score.

Take ATCGTCCC: the binding signal was -0.222 E-score.

For the sequence CCTGCAGA, the binding signal was -0.163 E-score.

For the sequence AACCGTAG, the binding signal was -0.0299 E-score.

For CTGCACAC, the binding signal is -0.044 E-score.

AATTATCA yielded a binding signal of 0.291 E-score.

As to CAATTACG, the binding signal came to 0.131 E-score.

Take TCGACACA: the binding signal is -0.089 E-score.

Consider GCCGCTGA, for which the binding signal is -0.158 E-score.

The sequence CCATATGA had a binding signal of 0.0601 E-score.

With CATGATTA, the binding signal is -0.0351 E-score.

Take GCACGTCA: the binding signal is -0.174 E-score.

For the sequence TCAGATAA, the binding signal came to 0.189 E-score.

Consider CTTCTTAC, for which the binding signal turned out to be 0.303 E-score.

The sequence AACACGTC gave a binding signal of 0.0277 E-score.

As for CCCCAGGG, the binding signal is -0.324 E-score.

As to AGCTGTGG, the binding signal is -0.332 E-score.

Regarding CGACAAAC, the binding signal was -0.146 E-score.

In the case of AGACTGCG, the binding signal is -0.124 E-score.

AGTCTAAT showed a binding signal of 0.0221 E-score.

In the case of CTCAGCAG, the binding signal is -0.206 E-score.

In turn, GTAGATAA yielded a binding signal of 0.397 E-score.

Consider AGTCATTA, for which the binding signal was -0.0085 E-score.

For CAGATCAA, the binding signal was -0.145 E-score.

Turning to CACAGGTC, the binding signal is -0.103 E-score.

With AGTGGGAA, the binding signal is -0.112 E-score.

Consider TGGGACAA, for which the binding signal is -0.0222 E-score.

Turning to GATGGTAA, the binding signal stood at 0.222 E-score.

Regarding CATATGGC, the binding signal was -0.0405 E-score.

Take ATTCCGAA: the binding signal is 0.147 E-score.

As to GATGTGGC, the binding signal was -0.00607 E-score.

As to CGACGCCG, the binding signal is -0.116 E-score.

With CGAGTATA, the binding signal was found to be 0.257 E-score.

CATTCTAA returned a binding signal of 0.12 E-score.

GGCGGACC: the binding signal was -0.277 E-score.

With AAGAACGG, the binding signal was -0.121 E-score.

Take AAGATGGC: the binding signal is 0.0154 E-score.

Regarding AGAGTTAT, the binding signal came to 0.131 E-score.

In the case of GCCTACCA, the binding signal was -0.0409 E-score.

In the case of AACCTGAA, the binding signal is -0.0375 E-score.

As to ACCCAACA, the binding signal is -0.0613 E-score.

As for TCGCCCGA, the binding signal is -0.284 E-score.

The sequence CAAGTTAC showed a binding signal of 0.0977 E-score.

As to CGAAAGAA, the binding signal was -0.254 E-score.

Regarding ACAAAAAT, the binding signal is 0.00529 E-score.

TCCCCCAA: the binding signal was -0.237 E-score.

On to AGTAGAAT, for which the binding signal turned out to be 0.422 E-score.

Take ACCCAATG: the binding signal turned out to be 0.0422 E-score.

AGATAGTC registered a binding signal of 0.0233 E-score.

Take GGACCGTA: the binding signal was -0.0209 E-score.

GCTAAGAA gave a binding signal of 0.0341 E-score.

Sequence ATATGGAT displayed a binding signal of 0.23 E-score.

AACGGCTG: the binding signal is -0.0851 E-score.

Regarding CCAGGGAC, the binding signal was -0.189 E-score.

On to CTGTGGAA, for which the binding signal is 0.041 E-score.

Consider CCGATAAG, for which the binding signal was -0.157 E-score.
